Measurements reported in article PMC6919601, “Identification of Plasmodium dipeptidyl aminopeptidase allosteric inhibitors by high throughput screening” (PLoS ONE, 2019).
Values belong to the compound of their own block, whether it stands above or below them.

Assays:
DPAP1 [1] = target: T1, DPAP1 (Plasmodium falciparum, UniProt Q8IIJ9); test: biochemical; format: biochemical; conditions: 10 μM compound, parasite lysates, (PR)2Rho, 30 min end-point; read-out: DPAP1 % Inhibition @ 10 uM
T1 sequence (Q8IIJ9 370-599 limits assumed): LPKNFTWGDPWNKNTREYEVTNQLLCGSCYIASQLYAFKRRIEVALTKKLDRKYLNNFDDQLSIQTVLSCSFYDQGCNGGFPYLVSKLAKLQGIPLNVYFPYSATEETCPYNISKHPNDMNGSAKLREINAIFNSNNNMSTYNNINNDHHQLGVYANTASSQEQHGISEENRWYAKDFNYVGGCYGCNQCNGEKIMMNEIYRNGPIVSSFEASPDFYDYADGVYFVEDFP
T1 sequence (Q8IIJ9 28-209 limits assumed): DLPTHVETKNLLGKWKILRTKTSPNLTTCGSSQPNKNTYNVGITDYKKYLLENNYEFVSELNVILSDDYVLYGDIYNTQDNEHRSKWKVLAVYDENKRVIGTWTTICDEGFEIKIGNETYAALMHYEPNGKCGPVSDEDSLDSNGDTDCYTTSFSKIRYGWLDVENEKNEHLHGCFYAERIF
T1 sequence (Q8IIJ9 600-700 limits assumed): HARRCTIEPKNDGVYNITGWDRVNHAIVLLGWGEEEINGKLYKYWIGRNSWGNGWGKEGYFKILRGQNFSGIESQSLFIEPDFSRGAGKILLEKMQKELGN

[2] = tested on: WI-38 primary lung fibroblast; conditions: 10 uM; ref SMDC Assay #440; cited from earlier work
DPAP1 [3] = target: T1, DPAP1; test: biochemical; format: biochemical; conditions: for Emax: 0.5 h, VR-ACC at Km, > = inhibition at the highest concentration, no baseline reached, read-out: Maximum % Inhibition DPAP1
P. falciparum = test: Standard 72 h parasite replication assay; format: cell-based, Plasmodium falciparum; conditions: Plasmodium falciparum; 100 μM, 72h replication assay; read-out: Pf % Inh @ 100 μM
DPAP1 [4] = target: T1, DPAP1; test: biochemical; format: biochemical; conditions: for DPAP1 inhibition Model: COM competitive, UNC uncompetitive, P-M partial mixed, P-C partial competitive, P-NC partial non-competitive, P-U partial uncompetitive; for DPAP1 α: factor by which Km is modified at saturating inhibitor; for DPAP1 β: factor by which kcat (Vmax) is modified at saturating inhibitor; for Ki: global fit to MOI model, standard error of fit in parentheses
CatC = CatC (Bos taurus, UniProt Q3ZCJ8); test: Mechanism of inhibition studies, CatC; format: biochemical, bovine; conditions: for CatC α: factor by which Km is modified at saturating inhibitor
Chain of CatC (Q3ZCJ8 231-394 limits assumed): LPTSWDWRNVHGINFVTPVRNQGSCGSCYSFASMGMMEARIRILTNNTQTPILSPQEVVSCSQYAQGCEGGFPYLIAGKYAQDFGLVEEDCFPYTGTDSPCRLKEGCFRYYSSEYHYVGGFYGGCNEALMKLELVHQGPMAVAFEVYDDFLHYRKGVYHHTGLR
Chain of CatC (Q3ZCJ8 25-134 limits assumed): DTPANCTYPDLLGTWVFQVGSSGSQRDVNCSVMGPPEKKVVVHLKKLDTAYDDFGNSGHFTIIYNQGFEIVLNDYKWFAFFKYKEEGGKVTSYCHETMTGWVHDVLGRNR
Chain of CatC (Q3ZCJ8 395-463 limits assumed): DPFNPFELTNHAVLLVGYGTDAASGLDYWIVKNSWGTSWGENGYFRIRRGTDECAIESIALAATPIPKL

FP3 [5] = target: T2, FP3 (Plasmodium falciparum, UniProt Q8IIL0); test: biochemical; format: biochemical; conditions: for FP3 inhibition Model: COM competitive, UNC uncompetitive, P-M partial mixed, P-C partial competitive, P-NC partial non-competitive, P-U partial uncompetitive
T2 sequence (Q8IIL0 243-492): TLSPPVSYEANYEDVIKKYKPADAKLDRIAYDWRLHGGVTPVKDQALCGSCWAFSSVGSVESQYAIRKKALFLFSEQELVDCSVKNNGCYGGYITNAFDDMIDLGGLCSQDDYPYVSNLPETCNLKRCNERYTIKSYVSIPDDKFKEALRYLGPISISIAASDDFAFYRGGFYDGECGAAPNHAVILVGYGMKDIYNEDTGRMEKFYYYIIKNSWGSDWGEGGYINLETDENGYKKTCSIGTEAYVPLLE

DPAP3 = DPAP3 (Plasmodium falciparum, UniProt Q8I1Y2); test: biochemical; conditions: for Emax: 0.5 h, read-out: Maximum % Inhibition DPAP3
Chain of DPAP3 (Q8I1Y2 entry or part of it): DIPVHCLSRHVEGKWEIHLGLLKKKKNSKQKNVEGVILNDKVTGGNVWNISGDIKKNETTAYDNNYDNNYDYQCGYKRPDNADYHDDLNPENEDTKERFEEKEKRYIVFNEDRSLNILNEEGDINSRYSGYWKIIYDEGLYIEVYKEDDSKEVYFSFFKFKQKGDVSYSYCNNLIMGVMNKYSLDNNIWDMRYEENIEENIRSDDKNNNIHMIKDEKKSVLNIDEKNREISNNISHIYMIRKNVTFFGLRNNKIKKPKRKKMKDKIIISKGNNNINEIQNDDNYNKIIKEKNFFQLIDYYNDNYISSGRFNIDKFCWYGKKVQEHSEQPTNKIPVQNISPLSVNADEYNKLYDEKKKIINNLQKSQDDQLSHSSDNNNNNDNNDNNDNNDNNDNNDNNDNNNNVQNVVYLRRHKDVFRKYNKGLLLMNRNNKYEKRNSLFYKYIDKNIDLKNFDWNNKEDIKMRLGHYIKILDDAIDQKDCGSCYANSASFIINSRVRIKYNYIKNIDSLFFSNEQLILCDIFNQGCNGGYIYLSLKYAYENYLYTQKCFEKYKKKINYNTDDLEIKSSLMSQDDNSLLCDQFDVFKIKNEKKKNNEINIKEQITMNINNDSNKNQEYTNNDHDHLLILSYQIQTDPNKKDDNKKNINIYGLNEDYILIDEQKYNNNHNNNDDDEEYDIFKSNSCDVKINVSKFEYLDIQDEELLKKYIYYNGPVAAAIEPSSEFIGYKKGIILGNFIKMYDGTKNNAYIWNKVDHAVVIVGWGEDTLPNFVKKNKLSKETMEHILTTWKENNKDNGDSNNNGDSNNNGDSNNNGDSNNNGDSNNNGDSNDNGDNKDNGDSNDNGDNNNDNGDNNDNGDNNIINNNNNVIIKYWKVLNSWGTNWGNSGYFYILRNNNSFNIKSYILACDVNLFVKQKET

FP3 [6] = target: T2, FP3; test: biochemical; conditions: for Emax: 0.5 h, read-out: Maximum % Inhibition FP3, substrate at Km
[7] = tested on: WI-38 primary lung fibroblast; test: cells; parameters: Cell toxicity screen in WI-38 primary lung fibroblasts at 10 uM (SMDC assay 440); conditions: Homo sapiens, sheet All cpds;, SMDC cell toxicity assay 440
bovine CatC = bovine CatC (Bos taurus, UniProt Q3ZCJ8); test: Dose response inhibition assay, CatC with GR-AMC substrate; conditions: for Emax: 0.5 h, read-out: Maximum % Inhibition CatC, substrate at Km
Chain of bovine CatC (Q3ZCJ8 231-394 limits assumed): as the sequence (Q3ZCJ8 231-394 limits assumed) above
Chain of bovine CatC (Q3ZCJ8 25-134 limits assumed): as the sequence (Q3ZCJ8 25-134 limits assumed) above
Chain of bovine CatC (Q3ZCJ8 395-463 limits assumed): as the sequence (Q3ZCJ8 395-463 limits assumed) above

- inhibition at 10 µM (DPAP1 [1]): 98%
Structure (SMILES): C(=C\c1ccccc1)/CN1CCN(C2CCN(CCc3ccccc3)CC2)CC1 [SMDC27734, C(Cc1ccccc1)N2CCC(CC2)N3CCN(C\C=C\c4ccccc4)CC3]
- Cell Toxicity WI-38 primary lung fibroblast %Inhibition @ 10 uM [2]: -3%

Structure (SMILES): N#CC1=C(N)SC(N)=C(C#N)C1c1ccccc1 [SMDC31843, NC1=C(C#N)C(C(=C(N)S1)C#N)c2ccccc2]
- IC50 (DPAP1 [3]): 2.2 µM
- Emax (DPAP1 [3]): 71%
- inhibition at 100 µM (P. falciparum): 24%
- DPAP1 inhibition Model (DPAP1 [4]): P-C
- DPAP1 α (DPAP1 [4]): 5.6 (0.7)
- DPAP1 β (DPAP1 [4]): = 1
- Ki (DPAP1 [4]): 6.2 µM
- CatC inhibition Model (CatC; COM competitive, UNC uncompetitive, P-M partial mixed, P-C partial competitive, P-NC partial non-competitive, P-U partial uncompetitive): P-M
- CatC α (CatC): < 1
- CatC α (CatC; listed as 31843): 0.33 (0.06)
- Ki (CatC; global fit to MOI model, standard error of fit in parentheses, read-out: CatC Ki): 140 µM
- FP3 inhibition Model (FP3 [5]): uncompetitive
- FP3 inhibition Model (FP3 [5]; listed as 31843): UNC
- Ki (FP3 [5]; global fit to MOI model, standard error of fit in parentheses, read-out: FP3 Ki): 14.2 µM
- inhibition at 10 µM (DPAP1 [1]): 71%
- Cell Toxicity WI-38 primary lung fibroblast %Inhibition @ 10 uM [2]: 12%
- IC50 (DPAP3): 30 µM
- Emax (DPAP3): 100%
- IC50 (FP3 [6]): 5.7 µM
- Emax (FP3 [6]): 100%
- inhibition at 10 µM [7]: 11.6%
- IC50 (bovine CatC): ~25 µM
- Emax (bovine CatC): > 75%

- inhibition at 10 µM (DPAP1 [1]): 61%
Structure (SMILES): O=C1CN(S(=O)(=O)c2ccccc2)CCN1S(=O)(=O)c1ccccc1 [SMDC103197, O=C1CN(CCN1S(=O)(=O)c2ccccc2)S(=O)(=O)c3ccccc3]
- Cell Toxicity WI-38 primary lung fibroblast %Inhibition @ 10 uM [2]: -2%

- inhibition at 10 µM (DPAP1 [1]): -3%
Structure (SMILES): O=C(NCc1cccs1)c1cccc(COc2cccc(Cl)c2)c1 [SMDC103732, Clc1cccc(OCc2cccc(c2)C(=O)NCc3cccs3)c1]
- Cell Toxicity WI-38 primary lung fibroblast %Inhibition @ 10 uM [2]: 12%

Structure (SMILES): NC(=O)c1c(NC(=O)COc2ccc(Cl)cc2)sc2c1CCCCC2 [SMDC106958, NC(=O)c1c2CCCCCc2sc1NC(=O)COc3ccc(Cl)cc3]
- IC50 (DPAP1 [3]): 80 µM
- Emax (DPAP1 [3]): 85%
- inhibition at 100 µM (P. falciparum): 25%
- inhibition at 10 µM (DPAP1 [1]): 65%
- Cell Toxicity WI-38 primary lung fibroblast %Inhibition @ 10 uM [2]: 1.3%
- Emax (DPAP3): > 50%
- IC50 (FP3 [6]): 6.5 µM
- Emax (FP3 [6]): 100%
- IC50 (bovine CatC): ~100 µM
- Emax (bovine CatC): > 50%

- inhibition at 10 µM (DPAP1 [1]): 58%
Structure (SMILES): Cc1ccc(S(=O)(=O)c2cc3c(=O)n4ccccc4nc3n(C)c2=N)cc1 [SMDC108710, CN1C(=N)C(=CC2=C1N=C3C=CC=CN3C2=O)S(=O)(=O)c4ccc(C)cc4]
- Cell Toxicity WI-38 primary lung fibroblast %Inhibition @ 10 uM [2]: -1%

- IC50 (DPAP1 [3]): ~100 µM
- Emax (DPAP1 [3]): > 50%
- inhibition at 10 µM (DPAP1 [1]): 52%
- IC50 (FP3 [6]): 18 µM
- Emax (FP3 [6]): 100%
- IC50 (bovine CatC): ~50 µM
- Emax (bovine CatC): > 80%
Structure (SMILES): Cn1cc(Br)c(C(=O)Nc2sc3c(c2C(N)=O)CCCCC3)n1 [SMDC111619, Cn1cc(Br)c(n1)C(=O)Nc2sc3CCCCCc3c2C(=O)N]
- inhibition at 100 µM (P. falciparum): 35%
- Cell Toxicity WI-38 primary lung fibroblast %Inhibition @ 10 uM [2]: -5%

Structure (SMILES): Cc1ccc(NC(=O)CN2C(=O)S/C(=C\c3ccccc3O)C2=O)cc1 [SMDC112370, Cc1ccc(NC(=O)CN2C(=O)S\C(=C/c3ccccc3O)\C2=O)cc1]
- IC50 (DPAP1 [3]): 0.6 µM
- Emax (DPAP1 [3]): 42%
- inhibition at 100 µM (P. falciparum): 6%
- inhibition at 10 µM (DPAP1 [1]): 51%
- Cell Toxicity WI-38 primary lung fibroblast %Inhibition @ 10 uM [2]: 14%
- Emax (DPAP3): 100%
- IC50 (FP3 [6]): 21 µM
- Emax (FP3 [6]): 100%
- IC50 (bovine CatC): 13.5 µM
- Emax (bovine CatC): 64%

- inhibition at 10 µM (DPAP1 [1]): 77%
Structure (SMILES): Nc1c(C(=O)Nc2nccs2)sc2nc(-c3cccs3)cc(C(F)(F)F)c12 [SMDC153131, Nc1c(sc2nc(cc(c12)C(F)(F)F)c3cccs3)C(=O)Nc4nccs4]
- Cell Toxicity WI-38 primary lung fibroblast %Inhibition @ 10 uM [2]: 17%

- inhibition at 10 µM (DPAP1 [1]): 85%
Structure (SMILES): S=c1[nH]c(=S)c2c3c(sc2[nH]1)CCC3 [SMDC153437, S=C1NC(=S)c2c3CCCc3sc2N1]
- Cell Toxicity WI-38 primary lung fibroblast %Inhibition @ 10 uM [2]: 5.7%

- inhibition at 10 µM (DPAP1 [1]): 51%
Structure (SMILES): O=C1N=C(N2CCN(Cc3ccccc3)CC2)S/C1=C\c1cccc(O)c1 [SMDC154584, Oc1cccc(\C=C\2/SC(=NC2=O)N3CCN(Cc4ccccc4)CC3)c1]
- Cell Toxicity WI-38 primary lung fibroblast %Inhibition @ 10 uM [2]: 5.5%

Structure (SMILES): Cc1nc2scc(C)n2c(=O)c1S(=O)(=O)NC1CCCCCCC1 [SMDC168234, CC1=CSC2=NC(=C(C(=O)N12)S(=O)(=O)NC3CCCCCCC3)C]
- inhibition at 10 µM (DPAP1 [1]): 72%
- Cell Toxicity WI-38 primary lung fibroblast %Inhibition @ 10 uM [2]: 14%

- IC50 (DPAP1 [3]): 1.8 µM
- Emax (DPAP1 [3]): 78%
- DPAP1 inhibition Model (DPAP1 [4]): P-C
- DPAP1 α (DPAP1 [4]): 2.8 (0.2)
- DPAP1 β (DPAP1 [4]): = 1
- Ki (DPAP1 [4]): 4.1 µM
- inhibition at 10 µM (DPAP1 [1]): 57%
- IC50 (FP3 [6]): 6.3 µM
- Emax (FP3 [6]): 100%
- IC50 (bovine CatC): ~100 µM
- Emax (bovine CatC): > 50%
Structure (SMILES): Cn1c(S)nc2c(=O)oc3ccccc3c21 [SMDC168313, Cn1c(S)nc2C(=O)Oc3ccccc3c12]
- inhibition at 100 µM (P. falciparum): 20%
- Cell Toxicity WI-38 primary lung fibroblast %Inhibition @ 10 uM [2]: 12%
- inhibition at 10 µM [7]: 12.2%

- inhibition at 10 µM (DPAP1 [1]): 65%
Structure (SMILES): COc1ccc2nc3sc(C(=O)NCCCN4CCc5ccccc5C4)cc3cc2c1 [SMDC168384, COc1ccc2nc3sc(cc3cc2c1)C(=O)NCCCN4CCc5ccccc5C4]
- Cell Toxicity WI-38 primary lung fibroblast %Inhibition @ 10 uM [2]: 12%
- inhibition at 10 µM [7]: 11.6%

- inhibition at 10 µM (DPAP1 [1]): 99%
Structure (SMILES): COc1ccc2c(c1)cc1c(=O)n(CC(=O)NCc3cccc(OC)c3OC)nc(C)n12 [SMDC175681, COc1ccc2c(c1)cc3C(=O)N(CC(=O)NCc4cccc(OC)c4OC)N=C(C)n23]
- Cell Toxicity WI-38 primary lung fibroblast %Inhibition @ 10 uM [2]: -3%

- inhibition at 10 µM (DPAP1 [1]): 54%
Structure (SMILES): Cn1c2ccccc2c2cnn(CC(=O)N3CCN(c4ncccn4)CC3)c(=O)c21 [SMDC177386, Cn1c2C(=O)N(CC(=O)N3CCN(CC3)c4ncccn4)N=Cc2c5ccccc15]
- Cell Toxicity WI-38 primary lung fibroblast %Inhibition @ 10 uM [2]: -5%

Structure (SMILES): Cc1ccc(CNC(=O)c2noc3c2COc2ccccc2-3)cc1 [SMDC184592, Cc1ccc(CNC(=O)c2noc3c2COc4ccccc34)cc1]
- inhibition at 10 µM (DPAP1 [1]): 73%
- Cell Toxicity WI-38 primary lung fibroblast %Inhibition @ 10 uM [2]: -2%

- inhibition at 10 µM (DPAP1 [1]): 75%
Structure (SMILES): Cc1cccc(CCNC(=O)c2noc3c2COc2ccccc2-3)c1 [SMDC184622, Cc1cccc(CCNC(=O)c2noc3c2COc4ccccc34)c1]
- Cell Toxicity WI-38 primary lung fibroblast %Inhibition @ 10 uM [2]: 0%

Structure (SMILES): COc1ccc(C(=O)CCN(C)CC(=O)O)cc1 [SMDC197624, COc1ccc(cc1)C(=O)CCN(C)CC(=O)O]
- inhibition at 10 µM (DPAP1 [1]): 56%
- Cell Toxicity WI-38 primary lung fibroblast %Inhibition @ 10 uM [2]: 1.8%

Structure (SMILES): CCOc1ccc(C(=O)CCNC(C(=O)O)C(C)CC)cc1 (stereo not shown) [SMDC197673, CCOc1ccc(cc1)C(=O)CCNC(C(C)CC)C(=O)O]
- inhibition at 10 µM (DPAP1 [1]): 71%
- Cell Toxicity WI-38 primary lung fibroblast %Inhibition @ 10 uM [2]: 11%
- inhibition at 10 µM [7]: 11.4%

Structure (SMILES): N#Cc1c(C(F)(F)F)cc(-c2cccs2)nc1SCC(=O)N1CCOCC1 [compound 97214]
- inhibition at 10 µM [7]: -2%

Structure (SMILES): O=C(c1cccnc1)c1conc1C(=O)c1ccc(Br)cc1 [compound 112054]
- inhibition at 10 µM [7]: 11.9%
